Experimental data as given in PubChem BioAssay (Tox21).
Several values for one entry are separate records, joined by “and”; a condition that tells them apart may be missing. Equal entries are not always repeated. Inconclusive means that the source gave no clear call. Such entries were picked first, then a sample of the others. Potencies beside an inconclusive call are fits to weak or partial responses and may not hold up. Activity calls are given as the source filed them. Calls come from the whole dose curve; as a rule, active = well fitted curve in the direction sought with a large enough effect in the repeat runs; inconclusive = weak or mixed curves; inactive = no such curve, though single readings can be large; an effect the other way counts as inactive or inconclusive.

test: qHTS assay to identify small molecule antagonists of the thyroid receptor (TR) signaling pathway - cell viability counter screen (AID 743064); settings: GH3.TRE-Luc viability, CellTiter-Fluor, 24 h; series mostly up to 70.3 µM; note: nearly all actives have a fitted effect of over 50% in size
Summary of the method: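 Compounds were tested on GH3.TRE-Luc cells in the presence of T3 at 1 nM final. Following 23.5 h at 37 °C, cell viability was quantified by CellTiter-Fluor.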
Potency is the fitted concentration of half-maximal effect; tags give direction and shape of the fitted curve.

| Compound | Potency |
| --- | --- |
| O=C(NC(=O)c1c(F)cccc1F)Nc1cc(Cl)c(Oc2ncc(C(F)(F)F)cc2Cl)c(Cl)c1 | active: 58.5 µM |
| COc1ccc(C=O)cc1OC | inactive |
| Cc1cc(C2CC2)nc(Nc2ccccc2)n1 | inconclusive: 68.6 µM [cytotoxic, single point] |
| CC(C)(O)C(=O)Nc1ccc([N+](=O)[O-])c(C(F)(F)F)c1 | inconclusive: 1.41 µM [rising, partial curve] |
| COP(=O)(OC)O/C(=C/Cl)c1cc(Cl)c(Cl)cc1Cl | inconclusive: 36.3 µM [cytotoxic, partial curve, poor fit] |

test: qHTS assay to identify small molecule antagonists of the thyroid receptor (TR) signaling pathway (AID 743065); settings: GH3.TRE-Luc, T3-stimulated luciferase inhibition, 23.5 h; series mostly up to 70.3 µM; note: nearly all actives have a fitted effect of over 55% in size
Summary of the method: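 Antagonism measured as loss of luciferase signal in GH3 cells stably carrying a TRE-luciferase reporter, co-treated with compound and T3 (1 nM final) for 23.5 h at 37 C. Viability was read in the same well by CellTiter-Fluor.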

| Compound | Potency |
| --- | --- |
| CCCCCCCCn1cc[n+](C)c1 | inconclusive: 48.2 µM [inhibitor, partial curve, poor fit] and inconclusive: 69.3 µM [inhibitor, single point] |
| Nc1c(Cl)cc([N+](=O)[O-])cc1Cl | inconclusive: 61.1 µM [inhibitor] |
| Cc1cc(C(C)(C)c2ccc(O)c(C)c2)ccc1O | inconclusive: 23.2 µM [inhibitor, partial curve] |
| CCOP(=S)(OCC)Oc1cc(C)nc(N(CC)CC)n1 | inconclusive: 68.6 µM [inhibitor] |
| CC(Oc1ccc(Oc2ncc(C(F)(F)F)cc2Cl)cc1)C(=O)O (stereo unspecified) | inconclusive: 24.3 µM [inhibitor, partial curve] |
| C/C(=C\c1ccccc1)[N+](=O)[O-] | active: 6.86 µM |
| O=[N+]([O-])c1ccc2ccc3cccc4ccc1c2c34 | inconclusive: 19.3 µM [inhibitor, partial curve] |
| O=C(NC(=O)c1c(F)cccc1F)Nc1cc(Cl)c(Oc2ncc(C(F)(F)F)cc2Cl)c(Cl)c1 | active: 8.27 µM |
| Cc1cc(C2CC2)nc(Nc2ccccc2)n1 | active: 54.5 µM |
| CC(C)(O)C(=O)Nc1ccc([N+](=O)[O-])c(C(F)(F)F)c1 | inconclusive: 39.8 µM [inhibitor, partial curve] |
| COP(=S)(OC)SCn1nnc2ccccc2c1=O | inconclusive: 47.6 µM [inhibitor, partial curve] and inconclusive: 68.6 µM [inhibitor] |
